# Measurements as given in the supplement of paper PMC4166925.
# ± gives the standard deviation of the averaged measurements. The full ranking holds about 33,000 sequences; the median of “E-score (dimensionless, -0.5 to 0.5)” is about -0.049, and the highest 2% start at about 0.37. This is one part of the list.
# System: T1, PmTbr T-box DNA-binding domain (GST fusion)
# T1 sequence: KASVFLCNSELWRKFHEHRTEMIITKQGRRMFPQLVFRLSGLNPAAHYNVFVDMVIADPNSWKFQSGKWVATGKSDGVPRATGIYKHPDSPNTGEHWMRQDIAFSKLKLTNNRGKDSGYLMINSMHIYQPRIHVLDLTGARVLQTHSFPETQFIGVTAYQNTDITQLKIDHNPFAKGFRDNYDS
# Assay: PBM E-score of 8-mer (E-score (dimensionless, -0.5 to 0.5)); Tbr is Tbrain of the sea star Patiria miniata (Pm) or the sea urchin Strongylocentrotus purpuratus (Sp); higher = stronger binding preference; most listed sequences are background and not binding sites
# Conditions: the construct has about 5 more residues each side
# Summary of the method: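 Universal Agilent oligonucleotide arrays, made double-stranded by primer extension, were incubated with 200 nM GST-fused Tbr T-box DNA-binding domain in PBS (pH 7.5). The protein was expressed in BL21 E. coli at 20 °C and purified by glutathione affinity chromatography. After scanning and quantification, the Universal PBM Analysis Suite assigned an enrichment E-score to each ungapped 8-mer, averaged over duplicate arrays.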
row,Sequence,PBM E-score of 8-mer
1,ATTAGCGC,0.331 ± 0.024
2,ACCCGCCT,0.0715 ± 0.059
3,AAGGACTC,-0.0491 ± 0.069
4,AAACGTAG,-0.076 ± 0.04
5,GCAATTAA,0.0317 ± 0.082
6,AAGGAGAG,-0.168 ± 0.053
7,CAAACATA,-0.176 ± 0.036
8,ATGTTCGG,-0.0272 ± 0.05
9,ACGTGATC,0.0646 ± 0.027
10,CTATACTA,-0.188 ± 0.041
11,AGACCAAA,0.0858 ± 0.083
12,CTTCGTAC,0.0547 ± 0.098
13,ACCTAACT,0.1322 ± 0.00088
14,GATGTGGA,-0.112 ± 0.027
15,GAATCCGA,-0.155 ± 0.027
16,AGGTGAAC,0.174 ± 0.0058
17,CTACAAAC,-0.00661 ± 0.026
18,GACCCCCA,-0.137 ± 0.043
19,CCTCAACG,0.0167 ± 0.051
20,ATCATTCC,-0.134 ± 0.0078
21,AAGCACAA,-0.166 ± 0.022
22,CAGCATTA,-0.0723 ± 0.024
23,CTAGCCAG,-0.185 ± 0.027
24,AATCTCGC,0.341 ± 0.015
25,AACTTTTG,-0.0457 ± 0.051

row,Sequence,PBM E-score of 8-mer
1,GGCTATAC,-0.163 ± 0.047
2,AAAGCTAA,-0.116 ± 0.075
3,GGACCTGA,-0.229 ± 0.046
4,ATGCAGGG,-0.172 ± 0.01
5,AGGTCCGC,0.0766 ± 0.032
6,CGATCGCA,0.226 ± 0.029
7,CGCTGGGC,-0.127 ± 0.1
8,ACAAATAA,-0.049 ± 0.059
9,CCACTCGC,0.13 ± 0.0051
10,CAGTCGGG,-0.0595 ± 0.012
11,TACGCACA,-0.0799 ± 0.0095
12,ATCCGTTA,-0.153 ± 0.087
13,AGTAATCA,-0.0163 ± 0.02
14,AGGATGCA,-0.304 ± 0.02
15,ACGTCCTA,-0.1436 ± 0.00023
16,GAACGCAC,-0.0225 ± 0.023
17,CAAAGACA,-0.0313 ± 0.013
18,TATTCGGA,-0.32 ± 0.033
19,CGACCGAC,0.0275 ± 0.11
20,TGGGCGAA,-0.161 ± 0.15
21,GAACCGGA,-0.188 ± 0.048
22,ATATCCGG,-0.353 ± 0.02
23,CCTGGTTA,-0.0818 ± 0.026
24,ACAAATTG,0.134 ± 0.051
25,TCTCAGCA,0.00945 ± 0.035

row,Sequence,PBM E-score of 8-mer
1,GTACGCGA,0.0245 ± 0.079
2,GCTATCAC,0.29 ± 0.0075
3,TGGCCACA,0.0314 ± 0.04
4,AGGGCGAT,0.0357 ± 0.024
5,CCATATCC,-0.195 ± 0.019
6,GCCTTCGC,0.279 ± 0.023
7,CGTGCGAA,0.448 ± 0.0091
8,CAAGGCAA,0.08 ± 0.018
9,GGTACGTA,-0.147 ± 0.02
10,ACCCAAAA,-0.1 ± 0.044
11,ACCCGGCG,-0.0053 ± 0.13
12,TATATACA,0.00231 ± 0.047
13,AGCAGACT,-0.0586 ± 0.019
14,CTATTTCC,-0.0822 ± 0.011
15,CAGACTGA,-0.257 ± 0.0036
16,ACATACGT,-0.00247 ± 0.033
17,CACACCCC,0.416 ± 0.013
18,AGGGGGTG,0.316 ± 0.027
19,ATAGGTCA,-0.2415 ± 0.00031
20,GAATTTAC,-0.203 ± 0.14
21,ACAATGAC,0.00371 ± 0.081
22,CGCCTGAA,-0.134 ± 0.018
23,ACAGGCTG,-0.0791 ± 0.025
24,GACAAGGC,0.101 ± 0.025
25,ACGGGAAA,-0.0104 ± 0.041

row,Sequence,PBM E-score of 8-mer
1,AATAACTG,0.0739 ± 0.043
2,GCTCGAGC,-0.197 ± 0.011
3,AAGGTAAA,0.102 ± 0.11
4,ACCATTAT,-0.104 ± 0.0073
5,CGCGTCGC,0.24 ± 0.019
6,TGACATAA,0.0301 ± 0.0037
7,AACAATCT,0.0378 ± 0.0048
8,TATTAACA,0.199 ± 0.085
9,AGAAGTGG,0.134 ± 0.0029
10,AATGCGAG,0.0459 ± 0.016
11,GCACCTAA,0.373 ± 0.016
12,AGTCGGTG,0.0028 ± 0.0072
13,CACGATGG,-0.0662 ± 0.041
14,ACGCGAAT,0.123 ± 0.046
15,GGACTAGA,-0.19 ± 0.028
16,AGATGACC,-0.231 ± 0.026
17,ATGAAGGC,-0.0339 ± 0.051
18,CTTAACCA,-0.141 ± 0.056
19,ACATGTAT,0.00304 ± 0.018
20,CGCAAGCA,0.0884 ± 0.027
21,CGCCCTCA,0.141 ± 0.01
22,TAAACGAA,-0.14 ± 0.03
23,ACCGCAGG,-0.0193 ± 0.015
24,AACTTCTT,-0.0804 ± 0.0058
25,AACATAGA,-0.199 ± 0.038

row,Sequence,PBM E-score of 8-mer
1,CATGTGAC,0.2823 ± 0.0013
2,GGACCCGA,0.161 ± 0.068
3,GTGACAAA,0.428 ± 0.029
4,TCGTGAAA,0.279 ± 0.018
5,TAAATACA,-0.0943 ± 0.0012
6,AACTCTCG,-0.128 ± 0.018
7,TGTGCTAA,0.346 ± 0.02
8,GGACTTTA,-0.193 ± 0.0087
9,AACCTTAG,-0.0923 ± 0.0088
10,CAGTTATG,-0.0798 ± 0.068
11,AGGCGTCG,0.353 ± 0.029
12,CCCCGCCA,0.124 ± 0.046
13,AGTATGCG,-0.0996 ± 0.096
14,GCACCCGA,0.15 ± 0.0018
15,AAATAATA,-0.0525 ± 0.045
16,AACGTGCT,0.1788 ± 0.00044
17,AGACTTAT,0.0325 ± 0.08
18,CGGCAGAC,-0.164 ± 0.07
19,ACCAACGG,0.108 ± 0.035
20,AGCGGTTG,0.0895 ± 0.017
21,AGCAGGGG,-0.0678 ± 0.061
22,ATGGTGCC,0.193 ± 0.051
23,CTGTGCTC,-0.168 ± 0.026
24,GAACTCAA,-0.229 ± 0.0061
25,GAAAGGGA,-0.177 ± 0.048

row,Sequence,PBM E-score of 8-mer
1,GCACTAAC,0.119 ± 0.047
2,AGCGGCTG,-0.138 ± 0.017
3,AATTCAGC,0.0267 ± 0.017
4,ATCCTGGC,-0.133 ± 0.079
5,AATTTTGT,-0.104 ± 0.14
6,AGCACGAC,-0.0584 ± 0.051
7,CACAGTCC,0.0117 ± 0.032
8,CCACTGTA,-0.029 ± 0.035
9,AATCGGAC,-0.121 ± 0.071
10,CAGCGGCA,0.0802 ± 0.04
11,AAGTCCAC,-0.0706 ± 0.012
12,GCGTATCA,-0.0253 ± 0.18
13,ACTGAGCG,0.0421 ± 0.036
14,GGCGTGAA,0.4668 ± 0.002
15,ACCAGTGA,-0.0342 ± 0.015
16,CTAGCCTC,-0.0732 ± 0.03
17,GAATTGAA,-0.283 ± 0.026
18,CGACTTGA,0.11 ± 0.011
19,CACACTAG,0.261 ± 0.048
20,ACGACGTG,0.244 ± 0.037
21,TGACAGCA,0.3043 ± 0.0026
22,GGCTACAA,-0.0179 ± 0.0065
23,ACGAATGA,-0.0786 ± 0.048
24,GCCTACCC,-0.0367 ± 0.028
25,ATCGGAAA,0.0591 ± 0.014

row,Sequence,PBM E-score of 8-mer
1,GTTCAAGA,-0.181 ± 0.098
2,ATGGAGCA,-0.186 ± 0.018
3,GCCCTACC,-0.194 ± 0.057
4,CCGCCGTC,-0.0956 ± 0.042
5,AACTCCTC,-0.1 ± 0.028
6,GCGGCATA,-0.202 ± 0.088
7,TACTTACA,0.0476 ± 0.0034
8,TAATGAAA,-0.00179 ± 0.032
9,CAGGCGAG,0.183 ± 0.017
10,AGGACATC,-0.0862 ± 0.062
11,ATGGTGGG,-0.245 ± 0.065
12,CGCGCAGA,0.112 ± 0.011
13,ACATAACG,0.191 ± 0.033
14,CCCCGTGC,-0.174 ± 0.04
15,CCTTTATA,-0.271 ± 0.017
16,CGCGTACC,0.0845 ± 0.065
17,TACGACAA,0.0864 ± 0.019
18,GTGCGAAC,0.4794 ± 0.0017
19,AGCCTTTA,-0.135 ± 0.049
20,ATCGCGGA,0.146 ± 0.0059
21,CTACAGTC,-0.0672 ± 0.021
22,ACCACTCC,0.0476 ± 0.03
